This passage reports binding signal results from PMC12136788.

This is one part of the list.

The labels stand for the following.
B1: chr7:10979719:10979720:-_ENSG00000189043_ENST00000339600|hu_hu|FALSE|FALSE (ssRNA)
RNA: GGGAGUUCUACAGUCCGACGAUCUGAUCUGGCGGAGCAUGUUUGCGGCAGAGGUCUCCGACUGGAAAGGAGAGAACCGACCUAGCCACCAGGCCCUAAGCUAAAAAUUAUCUGCAAUGAGACACUACGGACUUCCAAAGUCACCAACAGAGGAUUGAGCAUCA
B2: chr7:92027835:92027836:+_ENSG00000001629_ENST00000265742|hu_hu|FALSE|FALSE (ssRNA)
RNA: GGGAGUUCUACAGUCCGACGAUCAUUGAUGUUGGGGUCCUGGCCAGCUGAGUCAGGAUCACUAGAUGAGGGACAGAAAUCACUUCUUGCCUCACUGAGAGGGUGUGAGCUCAGGGUGUCAGUUGAAAAUGGGUCAUUCUCUGCCAACAGAGGAUUGAGCAUCA
B3: chr3:9412954:9412955:+_ENSG00000134077_ENST00000452837|hu_mus|hu_hu_hu_mus_False|38_108 (ssRNA)
RNA: GGGAGUUCUACAGUCCGACGAUCGGUUGAUACAUCCUCUUUGAUGGCUGGAUUUUCAUAAUAGUCCAAGAUAUGUGAAUCUGAAGUGCUGCUGGCAAACUCUUUUUUACCAUCUUUCUCAUCUGCUUUGUCUCCUUGUCCACACAACAGAGGAUUGAGCAUCA
B4: chr8:35901500:35901501:-_ENSMUSG00000031529_ENSMUST00000033929|mus_hu|FALSE|FALSE (ssRNA)
RNA: GGGAGUUCUACAGUCCGACGAUCUAUAUAGCAUGACCUGUCCUUGUGUGUAGGGCAGCCUGUUCCUCCUCCAAUUCCAUAAACAUAUUGGUUGCUUUUUGAGGAGUUUUCAGCAAAAUAAAUCCCGGCCCCAAACAUUCCUCCCAACAGAGGAUUGAGCAUCA
B5: chr9:101115835:101115836:-_ENSMUSG00000043154_ENSMUST00000075941|mus_hu|FALSE|FALSE (ssRNA)
RNA: GGGAGUUCUACAGUCCGACGAUCACUAUCAUAAAUCUUAGUUGGUAGUAGAGAAGUAUUGUGAUAACUGAGUCCUCCAAAGGUUUAAAUGAUUCAUUUUUCUGUGAAUGACAGAGAAACCUCGUUGCCCGCGGCUCCUCCUCCCAACAGAGGAUUGAGCAUCA
B6: chr2:220084271:220084272:-_ENSG00000198925_ENST00000396761|hu_hu|FALSE|FALSE (ssRNA)
RNA: GGGAGUUCUACAGUCCGACGAUCGGGUGAGGGGUGGGACAGAGAGUAGGAGCAGUCCCAGCAUGCAGUGCAGCAGCCCAAAGCCUCGGGCGAGGCAUCGCCCUUCAUCCCCCUUCAGGGCACAGCGAGAUGCGGGCCAGAGCUCAACAGAGGAUUGAGCAUCA
B7: 31526367_31530038_193_CDS_ENSMUSG00000039356_ENSMUST00000038474|mouse|control|control (ssRNA)
RNA: GGGAGUUCUACAGUCCGACGAUCGUAUCUGGUUUUCAAGGCUUUGACACAGAUCAGUUUGUUCACUCUCUCCACAGAGCCGGCCACAGACGCAAUGAGCUUCUCUUCCCCCAUGUAUGUCCCAUGGCCCCGCAUGAAGCCUGUCAACAGAGGAUUGAGCAUCA
B8: chr1:38489269:38489270:+_ENSG00000183520_ENST00000537711|hu_hu|motif|central (ssRNA)
RNA: GGGAGUUCUACAGUCCGACGAUCUUUGAAGUUACUAGAAAACGACAACAGAUUUUUGAUACAGAAUGACAAGGCUUAUCGGUAACACGUCAACGUUUUCGACGACUCUGAAAUUUAUAAAUAGCUGGGGAGUUCACCGUUUCUCAACAGAGGAUUGAGCAUCA
B9: chr11:43861564:43861565:+_ENSG00000149084_ENST00000278353|hu_hu|FALSE|FALSE (ssRNA)
RNA: GGGAGUUCUACAGUCCGACGAUCCAGUUUUGUAGCUACGAAGUAUGGCAGGACACUCUGCACAAAGACGCCCUUGCUCCUAUACUCCUCAUGGAGGCACUGAGAGAAGAAAUCUACAAAAGUCUUGGUUGCAGAAUAGAUGGUCAACAGAGGAUUGAGCAUCA
B10: 138659546_138659666_671_3pUTR_ENSMUSG00000050608_ENSMUST00000143971|mouse|control|control (ssRNA)
RNA: GGGAGUUCUACAGUCCGACGAUCGGUGCCACCAGUCUUGGGAUGGGGGUGGGAAGGUCAACUGUGCAUUAGGGGAGUGCGUUGGACAUGUCUGUGUCUUCAGGAGGUCACAGAGGCCACAGCUAGGCCAUUCAAAUAGAAGCCCAACAGAGGAUUGAGCAUCA
B11: chr4:140556289:140556290:+_ENSMUSG00000036622_ENSMUST00000037055|mus_mus|mus_mus_mus_hu_False|48_78 (ssRNA)
RNA: GGGAGUUCUACAGUCCGACGAUCGAUGGAGCUCACCAGGCCCCCUUUUGCCGUGCAGAACCCUGUCCGGGUCACCACUGCCAGGACACGGGGUCCCACAUAGGCCCGGGCCUGCAAGAUGAGGGUCCCGCAGAAGAGUGUGUGCAACAGAGGAUUGAGCAUCA
B12: 3121088_3121208_1293_3pUTR_ENSG00000088256_ENST00000078429|human|control|control (ssRNA)
RNA: GGGAGUUCUACAGUCCGACGAUCGUCUCCAUCCCGUCUCCCUGGGCCUGGGCGCUCAGACCAGGUUGUACUCCUUGAGGUUGAGCUGCAGGAUGGUGUCCUUCACGGCCGCGAACACGAAGCGGAUGUUCUCCGUGUCGGUGGCAACAGAGGAUUGAGCAUCA
B13: chr7:30656748:30656749:+_ENSG00000106105_ENST00000389266|hu_mus|FALSE|FALSE (ssRNA)
RNA: GGGAGUUCUACAGUCCGACGAUCAUCAGGAGAUAUUCCAACCUUCGUGAGGUAGAGGUAGAUGCGGCCAAUAAAAUAGCCUAAUACUGAGUUGUUAAUCACACCCUGUUCAACAGCAUCUCCCAGACGCAUCUUCCGAGCAGACAACAGAGGAUUGAGCAUCA
B14: 77918886_77921563_1784_CDS_ENSG00000167291_ENST00000310924|human|control|control (ssRNA)
RNA: GGGAGUUCUACAGUCCGACGAUCCAGUUGUUUCUCCAUGUCCUCGUCCCGGGGUGAGCUGACGAAGAUCGUGUUCUGCAUCAAACCCACAAAGCACCAGAAGGUGUCUGACUCAUCCAGGACCUCGGCCAAGAUGGGCGCCACCAACAGAGGAUUGAGCAUCA
B15: chr1:39469031:39469032:+_ENSG00000174574_ENST00000432648|hu_hu|motif|central (ssRNA)
RNA: GGGAGUUCUACAGUCCGACGAUCAUACCGUCGCAUAAUCUGAUCAUGUGUGAAUUUCACAAAAGAUUCAUAUUGUUCUGCGGGUUUGGUAUUGAGGAUUUGCUCAUACUCCUCCCGAAUUUUAUCUUCAUAGUCUUUUAAGAGCAACAGAGGAUUGAGCAUCA
B16: chrX:98862621:98862622:+_ENSMUSG00000034160_ENSMUST00000044475|mus_hu|mus_mus_mus_hu_False|68_68 (ssRNA)
RNA: GGGAGUUCUACAGUCCGACGAUCCUGCAUCUCCUUUAGAGUGUUUCCCAUAUUAGAGUAGGCAUCAGCAAAUGUAGGACUGAUUCGAAUAGCCUCCUUAUAAUGCAUCAGAGCUUCCUGCAGUUUUCCCUGCUGCUGCAGUACCAACAGAGGAUUGAGCAUCA
B17: chr17:65337090:65337091:-_ENSG00000197170_ENST00000584008|hu_hu|motif|central (ssRNA)
RNA: GGGAGUUCUACAGUCCGACGAUCACCAGUCAUUUAAUAAAUUAUUUGGAUCCUUGGGUCUCUGGAAGUUGAUAAUUCCUGCGGAUCUGUCUACUUUAGCAAAGAUGGUCUUGUUAACUACUAGAUUUGAGAGAAAGGCUUCGGCAACAGAGGAUUGAGCAUCA
B18: chr11:18503389:18503390:-_ENSG00000074319_ENST00000251968|hu_hu|hu_hu_hu_mus_True|88_108 (ssRNA)
RNA: GGGAGUUCUACAGUCCGACGAUCAUUUUCCAUUUUUUCCAGAGCAGAACUGAGUUCUUCAUCCUUCUUUUUCAAAAGUUCUAUGUUUUUAUCAACUUCAGCUACUUCUUGAUCUAAGCGGGUGACCAUCUCUUCCAGUUUCUGCAACAGAGGAUUGAGCAUCA
B19: chr16:13835293:13835294:+_ENSMUSG00000022681_ENSMUST00000136618|mus_mus|motif|central (ssRNA)
RNA: GGGAGUUCUACAGUCCGACGAUCAGGAAAGAGUAUAUUCUCUGGAGAUGGGAAUUUUUUUAAAAACAUCAAGGUAGAUCGGAUAUGUUCAACAAAGUGGGGGGGCUCGGCCAGAGGAGACGUGGAAAGGCUCUCUAGGAUUUGCAACAGAGGAUUGAGCAUCA
B20: 47741279_47743844_752_3pUTR_ENSMUSG00000023988_ENSMUST00000024783|mouse|control|control (ssRNA)
RNA: GGGAGUUCUACAGUCCGACGAUCACAGUCUCCACCUCUGUCUGCUUCUCCGUCAACUUCUCCAUGAUGAUAUCAGCCAGGGUGCGCCUCACGGGAGGAUUCUUGUUCAUGAACAUUUCAAUGGCACGCUCAUCUUCAGGGUCCCAACAGAGGAUUGAGCAUCA
B21: chr15:99544167:99544168:+_ENSMUSG00000023018_ENSMUST00000023759|mus_mus|FALSE|FALSE (ssRNA)
RNA: GGGAGUUCUACAGUCCGACGAUCCCCAGGGCUGUCCAGUGUCACUGUGGGGAGGACCUUCCAAGGGGAGGGGUGGAUAUAGGACAUGGGAGGACAGGGAGAAGACUGCUGUCCCCAGUACAGAACAGGCUGGGAAGGGUGCAGCAACAGAGGAUUGAGCAUCA
B22: chr2:217001844:217001845:+_ENSG00000079246_ENST00000392132|hu_hu|hu_hu_hu_mus_False|58_98 (ssRNA)
RNA: GGGAGUUCUACAGUCCGACGAUCACCAACUUGAGGAUUAGCUCUUUUGUCAUAAGCAUAUCGGACGAUGGCGACCAUGUCUAAGUCAUCCAAAGCAUGAACGAGAGAGGAAAGGGCAACAGCUGCCGCCUCAUCAUCCUUUGCCAACAGAGGAUUGAGCAUCA

This experiment concerns the target T1, UNK ZnF1-3 (human, UniProt Q9C0B0 31-174).
T1 sequence: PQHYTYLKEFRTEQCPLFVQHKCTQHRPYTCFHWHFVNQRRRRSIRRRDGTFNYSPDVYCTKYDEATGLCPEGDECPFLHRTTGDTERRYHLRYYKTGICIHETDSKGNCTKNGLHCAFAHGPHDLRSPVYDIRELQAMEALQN
In words: nsRBNS (natural sequence RNA bind-n-seq); RBNS binding buffer (assumed for nsRBNS): 25 mM Tris pH 7.5, 150 mM KCl, 3 mM MgCl2, 0.01% Triton X-100, 500 ug/ml BSA, 20 U/ml SUPERase-In, 4 C; UNK is unkempt and MSI1 is Musashi-1; names of the RNAs are library labels; protein concentration not given here; high values mean tight binding.
Molecule B1 came in with a binding signal of 1.22 enrichment R.
B2 registered a binding signal of 1.33 enrichment R.
As for B3, the figure is 0.627 enrichment R.
Regarding B4, the binding signal stood at 1.26 enrichment R.
Take B5: the binding signal was determined as 0.806 enrichment R.
Take B6: the binding signal worked out at 1.12 enrichment R.
B7 displayed a binding signal of 0.926 enrichment R.
B8 yielded a binding signal of 2.6 enrichment R.
Regarding B9, the binding signal was determined as 1.18 enrichment R.
As to B10, the binding signal was 1.69 enrichment R.
As for B11, the figure is 1.1 enrichment R.
Molecule B12 registered a binding signal of 0.848 enrichment R.
In turn, B13 came in with a binding signal of 1.14 enrichment R.
As for B14, the binding signal worked out at 1.02 enrichment R.
For the molecule B15, the binding signal is 0.732 enrichment R.
In the case of B16 it was 1.12 enrichment R.
For B17, the binding signal is 1.68 enrichment R.
As for B18, the figure is 0.468 enrichment R.
As for B19, the figure is 2.1 enrichment R.
In the case of B20 it was 0.769 enrichment R.
In the case of B21, the binding signal amounted to 1.41 enrichment R.
In the case of B22 it was 2.12 enrichment R.
